No constants are given. Whether binding was seen depends on the method and setting. Binding seen in cells or lysates may run through a third protein. Some results given as binding are weak or reduced against the parent protein; the word gives no strength. For some of these results: Where a sequence is shown, tags or fusion partners need not be part of it.
T1: HA-tagged TvTom40-2 (T. vaginalis TOM 40-2) (Trichomonas vaginalis) (UniProt A2EH93)
T1 sequence: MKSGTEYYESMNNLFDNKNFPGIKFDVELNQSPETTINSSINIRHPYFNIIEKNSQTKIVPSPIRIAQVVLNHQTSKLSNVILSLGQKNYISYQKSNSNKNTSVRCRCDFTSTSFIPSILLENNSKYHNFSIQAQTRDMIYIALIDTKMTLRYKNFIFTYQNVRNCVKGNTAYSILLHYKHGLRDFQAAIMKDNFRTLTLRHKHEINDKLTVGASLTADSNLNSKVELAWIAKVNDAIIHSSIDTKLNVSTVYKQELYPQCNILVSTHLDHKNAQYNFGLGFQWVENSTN

B1: V5-tagged Tom22-like protein (protein, UniProt A2D9L3 1-57)
chain: MFNLVSRKKFYKKKMMMMPPPQPSKLEQITQIVKETAWVIGTSAFVIIFPIYVATKL
B2: cytochrome b5 (cytosolic, radiolabelled) (protein, UniProt A2DLT3 1-94)
chain: MASAQIAWGERMKQLPWVGDITREELAKHNTPEDCWCSYRGEVYNMTPYLAMHPGGPKIICSVAGGDMGELWMKHHPYISPALIAKVKIGRLVK
modifications: [35S]-methionine labelled

Key:
[1] = molecular target: T1, HA-tagged TvTom40-2 (T. vaginalis TOM 40-2) (Trichomonas vaginalis); test: co-IP; α-HA IP of TvTom40-2-HA from digitonin-lysed hydrogenosomes of double transfectants under native conditions; immunoblot with α-V5 and polyclonal α-Sam50
[2] = molecular target: T1, HA-tagged TvTom40-2 (T. vaginalis TOM 40-2) (Trichomonas vaginalis); test: co-IP; α-HA IP of TvTom40-2-HA from digitonin-lysed hydrogenosomes of double transfectants under crosslinking conditions (DSP); immunoblot with α-V5 and polyclonal α-Sam50
[3] = molecular target: T1, HA-tagged TvTom40-2 (T. vaginalis TOM 40-2) (Trichomonas vaginalis); test: co-IP; in vitro import of 35S-labelled TvFdx1-DHFR into hydrogenosomes (TvTom40-2-HA/Tom36-V5 strain) with 10 μM methotrexate, then crosslinking, lysis in 0.5% Triton X-100 and α-HA IP; autoradiography and immunoblot
[4] = molecular target: cytosolic domain of Tom36 with a C-terminal polyhistidine tag (Tom36cd-His) (Trichomonas vaginalis) (UniProt A2DU34); test: pull-down; Tom36cd-His or Tom46cd-His on Ni-NTA agarose beads (blocked with 3% BSA) incubated with 35S-labelled in vitro translated proteins and Trichomonas cytosolic extract in 50 mM Tris, 150 mM NaCl pH 7.4, 1 h at 37 °C; eluted with 500 mM imidazole; autoradiography; only the target purified
[5] = molecular target: cytosolic domain of Tom46 with a C-terminal polyhistidine tag (Tom46cd-His) (Trichomonas vaginalis) (UniProt A2FNS9); test: as above

Molecule	binding [1]	binding [2]	binding [3]	binding [4]	binding [5]
Sam50 (sorting and assembly machinery 50) (from UniProt A2DIG2 1-398)	binds	binds	–	–	–
V5-tagged Tom36 (from UniProt A2DU34 1-322)	binds	binds	binds	–	–
V5-tagged Tom46 (from UniProt A2FNS9 1-412)	binds weakly	binds	–	–	–
V5-tagged hydrogenosomal outer membrane protein 19 (Homp19) (from UniProt A2DEL5 1-165)	binds	binds	–	–	–
B1	binds	binds	–	–	–
B2	–	–	–	no binding	no binding
